# From PubChem BioAssay AID1347417 (National Center for Advancing Translational Sciences (NCATS), 2020)
# In all, about 120,000 compounds went through this assay and about 5,300 (4.4%) were called active. Inconclusive results, whose numbers are uncertain, are shown with a selection of clear calls. Calls follow the shape of the dose curve; as a rule, active = well fitted inhibition curve with a large enough effect; inconclusive = small, poorly fitted or top-dose-only effect; inactive = no such curve, though single readings can be large or run the other way. Potencies of inconclusive entries are doubtful fits and often do not repeat.
# Assay: qHTS Primary assay for Inhibitors of Plasmodium falciparum Dd2 growth in vitro; also: nearly all actives have a fitted effect of over 65% in size;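 as to activity, negative = inhibition: plate controls were DMSO vehicle for no effect and reference drug for full effect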
# Settings: P. falciparum Dd2 growth, SYBR Green, 72 h; activity, negative = inhibition: at 28.9 µM (top of the series) unless noted; series mostly up to 28.9 µM
# Summary of the method: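 Readout: SYBR Green fluorescence, 485 nm excitation, 535 nm emission, after ~16 h lysis at 37C. Before that, Dd2-infected red cells (2.5% hematocrit) grew 72 h with compound, 29 uM top final concentration.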
# Potency is read from the fitted curve at half-maximal effect; tags tell the direction and shape of the fitted curve.
SMILES,Potency,"activity, negative = inhibition",outcome
CC(=O)c1ccc(N2CCN(S(=O)(=O)c3cc(-c4onc(C)c4C)ccc3C)CC2)cc1,"inconclusive: 17.8 µM [inhibitor, single point]",–,–
Cc1ccc2onc(CC(=O)Nc3cc(F)ccc3F)c2c1,"inconclusive: 12.6 µM [inhibitor, partial curve, poor fit]",–,–
CC(CNC(=O)c1ccc(CSc2nc3ccncc3n2Cc2cccc(F)c2)cc1)c1ccccc1 (stereo not given),"inconclusive: 4.47 µM [inhibitor, partial curve, poor fit]",–,–
CCOc1cccc(CC(=O)N2CCc3c([nH]c4ccccc34)C2c2ccc(C)cc2)c1OCC (stereo not given),"inconclusive: 17.8 µM [inhibitor, single point]",–,–
COc1ccc(C(=O)Nc2ccc3c(c2)N(C2CCCC2)C(=O)c2ccccc2S3)cc1OC,"inconclusive: 14.1 µM [inhibitor, single point]",–,–
O=C(NCc1ccc(F)cc1)c1ccnc(-c2nnc3ccc(Nc4ccccc4)nn23)c1,"inconclusive: 17.8 µM [inhibitor, single point]",–,–
O=C(NC1CCCc2c1cnn2-c1ccc(F)cc1F)c1c(F)cccc1Cl (stereo not given),–,inactive: -23.9%,–
O=C(Nc1ccc2c(c1)OCCO2)N1CCC(Cc2nc(-c3cccnc3)n[nH]2)C1 (stereo not given),active: 3.55 µM,–,–
CN1CCN(C(=O)c2cc3n(n2)CC(c2ccc(Br)cc2)OC3)CC1 (stereo not given),–,–,inactive
O=C(COc1ccccc1)N1CCC(c2nc(C3CCOCC3)no2)C1 (stereo not given),"inconclusive: 3.16 µM [inhibitor, partial curve, poor fit]",–,–
C#CCN(C)CC[C@@H]1CC[C@H](O)[C@@H](C(=O)Nc2ccccc2)O1,"inconclusive: 31.6 µM [inhibitor, single point]",–,–
CC[C@H]1CN2CC[C@H]1C[C@@H]2CNC(=O)c1ccc2c(c1)OCO2,"inconclusive: 31.6 µM [inhibitor, single point]",–,–
O=C(c1ccc(OC2CCN(C(=O)C3CC3)CC2)nc1)N1CCOCC1,–,inactive: 69.7%,–
O=C1NCCCCCCN(C(=O)CCC2CCCC2)[C@H]2CCCC[C@@H]12,"inconclusive: 17.8 µM [inhibitor, single point]",–,–
Cc1cc(N2CCN(C)CC2)nc2ccc(NC(=O)Nc3ccc(Cl)cc3)cc12,active: 11.2 µM,–,–
CCc1nc(-c2c3n(c(=O)n(Cc4ccc(F)c(F)c4)c2=O)CCCCC3)no1,"inconclusive: 17.8 µM [inhibitor, single point]",–,–
COc1cccc(NC(=O)CN2C(=O)NC(c3ccccc3Cl)C3=C2COC3=O)c1 (stereo not given),"inconclusive: 17.8 µM [inhibitor, single point]",–,–
CN(Cc1ccccc1C(F)(F)F)C(=O)c1ccccc1,"inconclusive: 11.2 µM [inhibitor, partial curve]",–,–
CN(c1ccc(Cl)c(Cl)c1)C1CNC1,"inconclusive: 8.91 µM [inhibitor, partial curve]",–,–
CCc1ccccc1N(C)C(=O)Nc1cn(CC(C)C)c(=O)c2ccccc12,active: 8.91 µM,–,–
COc1cccc(CC(=O)N2CCCC(CN3CCCC3)CC2)c1 (stereo not given),active: 1 µM,–,–
Cc1nc(-c2ccc(N(C)C)cc2)cc([C@H]2CN3CC[C@H]2C[C@@H]3CNC(=O)C2CCC2)n1,"inconclusive: 5.62 µM [inhibitor, single point]",–,–

SMILES,Potency,"activity, negative = inhibition",outcome
COCCNC(=O)CN1C(=O)COc2ccc(S(=O)(=O)N3CCOCC3)cc21,–,inactive: 14.2%,–
CCNC(=O)c1cccc2c1CCN2S(=O)(=O)c1cccc(C)c1,"inconclusive: 17.8 µM [inhibitor, single point]",–,–
COc1ccc(C(=O)N[C@H]2C[C@@H](Cc3cc(CN(C)C)on3)C2(C)C)cc1,–,inactive: -16.8% [at 44.1 µM],–
CCc1ccc(NC(=O)CC2C(=O)N(c3ccc(OC)cc3)C(=O)N2Cc2ccc(OC)cc2)cc1 (stereo not given),"inconclusive: 17.8 µM [inhibitor, single point]",–,–
CC(C)Nc1ccc2nnc(-c3ccccn3)n2n1,–,inactive: -2.74% [at 44.1 µM],–
COc1ccc(CCNc2ncnc3c2c(-c2ccccc2)cn3-c2cccc(Cl)c2)cc1OC,active: 8.91 µM,–,–
N#Cc1ccc(S(=O)(=O)NC2CCc3nn(CC4CC4)c(=O)n3CC2)cc1 (stereo not given),–,inactive: 5.54%,–
CN(C)CCNC(=O)c1nc2nc(-c3ccccc3)c(-c3cccnc3)cc2n1C,"inconclusive: 20 µM [inhibitor, partial curve, poor fit]",–,–
O=C(NCc1ccc(F)cc1)N1CCC(OC2CCN(Cc3ccccc3)CC2)CC1,–,–,inactive
O=C(c1ccc(C(F)(F)F)cc1)N1CCC2(C1)C(=O)Nc1ccccc12 (stereo not given),–,inactive: -7.83%,–
CC(C)(C)NC(=O)N1CCCN(C(=O)C2CC2)C(c2ccccc2)CC(=O)NCC1 (stereo not given),–,inactive: -11.8%,–
CCOC(=O)c1c(NC(=O)CSc2cn(CCNC(=O)c3ccccc3OC)c3ccccc23)sc2c1CCCC2,"inconclusive: 7.08 µM [inhibitor, single point]",–,–
O=C(NCC1CCN(Cc2cccc(F)c2)CC1)c1cc2ccc3cccnc3c2[nH]1,active: 7.08 µM,–,–
CN(C)C(=O)c1ccc(N2CCC(NCCC3=CC[C@H]4C[C@@H]3C4(C)C)CC2)cc1,"inconclusive: 1.41 µM [inhibitor, full curve, poor fit]",–,–
COc1cc(C2C(C(=O)OC(C)C)=C(C)N=C3SCCC(=O)N32)ccc1OCc1ccccc1 (stereo not given),"inconclusive: 8.91 µM [inhibitor, single point]",–,–
COc1ccc(OC)c(NC(=O)c2c(NCc3ccc(C)o3)sc3c2CCCCC3)c1,"inconclusive: 12.6 µM [inhibitor, single point]",–,–
COc1cccc(NC(=O)N(Cc2cn(C)c3ccccc23)C2CCCCC2)c1,active: 2.82 µM,–,–
COc1ccc(N2C(=O)CSC23C(=O)N(CC(=O)NCc2ccccc2)c2ccccc23)cc1 (stereo not given),"inconclusive: 10 µM [inhibitor, single point]",–,–
Cc1ccc2nc(CO[C@H]3CN(Cc4ccc(S(C)(=O)=O)cc4)C[C@H]3F)[nH]c2c1,–,–,inactive [at 44.1 µM]
C=CCN(C)C(=O)[C@@H](C)C1CC[C@@]2(C)Cc3sc(NC(=O)CN(C)C)nc3[C@@H](C)[C@@H]2[C@H]1O (stereo not given in full),"inconclusive: 12.6 µM [inhibitor, partial curve, poor fit]",–,–
CN(C)C[C@@H]1CN(c2ncccn2)C[C@H]1NC(=O)c1cnn(C)c1,–,inactive: 20.8%,–
Cc1ccc(C)c(N2CCN(C(=O)CCn3ccn4nc5c(c4c3=O)CCCC5)CC2)c1,–,inactive: -16.2%,–

SMILES,Potency,"activity, negative = inhibition",outcome
COc1ccc(-c2ccc3ncc(Nc4cc(F)cc(N5CCOCC5)c4)n3n2)cc1OC,"inconclusive: 3.16 µM [inhibitor, partial curve, poor fit]",–,–
COc1ccccc1CNC(=O)C1CCN(S(=O)(=O)c2c(C)noc2/C=C/c2cccs2)CC1,"inconclusive: 12.6 µM [inhibitor, partial curve, poor fit]",–,–
O=C(NCc1ccccc1)c1ccc2c(c1)N(Cc1cccc(Cl)c1)C(=O)c1ccccc1S2(=O)=O,"inconclusive: 17.8 µM [inhibitor, single point]",–,–
Cc1ccc(CN2CCCC3(CCC(=O)N(CCc4cnc[nH]4)C3)C2)s1 (stereo not given),"inconclusive: 20 µM [inhibitor, single point]",–,–
Cc1noc2c(NCC3CCOCC3)cc(-c3ccc(Cl)cc3)nc12,–,inactive: -21.3% [at 44.1 µM],–
CC(=O)N1CC2(CCCN(Cc3ccccn3)C2)Cc2ccccc21 (stereo not given),–,inconclusive: -64.6% [inhibitor],–
Cc1ccccc1CN1C(=O)c2ccccc2Sc2ccc(C(=O)OCc3ccco3)cc21,active: 8.91 µM,–,–
CCn1ccc2cc(S(=O)(=O)N3CCC(C(=O)NCc4ccc(OC)cc4)CC3)ccc21,"inconclusive: 7.94 µM [inhibitor, single point]",–,–
Cc1ccc(N2CCN(c3c(CN4CCCC4)c(=O)oc4ccccc34)CC2)c(C)c1,"inconclusive: 12.6 µM [inhibitor, single point]",–,–
CN(C)c1ccc(CN2CCCC3(C2)C(=NC2CCCCC2)NC(=O)N3c2cccnc2)cc1 (stereo not given),"inconclusive: 6.31 µM [inhibitor, partial curve]",–,–
NC(=O)c1cc(-c2cc(NCc3cccnc3)nc3[nH]ccc23)ccc1F,"inconclusive: 8.91 µM [inhibitor, partial curve, poor fit]",–,–
O=C(Cn1cc(SCc2ccccc2)c2ccccc21)N1CCCCCC1,"inconclusive: 17.8 µM [inhibitor, partial curve, poor fit]",–,–
CCOc1ccccc1CNC(=O)c1cnc2c(-c3ccc(OCC)c(OCC)c3)c(C)nn2c1C,"inconclusive: 17.8 µM [inhibitor, single point]",–,–
CNC(=O)c1cc[nH]c1C1CCCN(C(=O)Cn2c(=O)oc3ccccc32)C1 (stereo not given),–,inactive: -28.2%,–
CC1CCCN(Cc2c(O)ccc3c(=O)c(Oc4ccc(C(C)(C)C)cc4)c(C(F)(F)F)oc23)C1 (stereo not given),active: 0.316 µM,–,–
CN(C)S(=O)(=O)c1ccc2c(c1)N(CC(=O)N1CCN(c3cccc(Cl)c3)CC1)CCS2,"inconclusive: 10 µM [inhibitor, single point]",–,–
COc1cc(OC)c(N(C)C(=O)C2CCCN(c3ncnc4c3nc3n4CCCCC3)C2)cc1Cl (stereo not given),"inconclusive: 12.6 µM [inhibitor, single point]",–,–
O=C(CN1CC2CC(C1)[C@H]1CCCC(=O)N1C2)NCCCN1CCCCCC1 (stereo not given in full),–,inactive: -24.6%,–
O=S(=O)(Cc1ccccc1)N[C@H]1CO[C@H]2[C@@H]1OC[C@@H]2n1cc(-c2ccccn2)nn1,"inconclusive: 11.2 µM [inhibitor, single point]",–,–
Cc1cccc(CN2CCCC3(CCN(C(=O)CCc4ccccc4C)C3)C2)c1 (stereo not given),"inconclusive: 11.2 µM [inhibitor, single point]",–,–
CCN1c2cc(C(=O)NCc3cc(F)cc(F)c3)ccc2C(=O)N2CCCCCC21 (stereo not given),"inconclusive: 6.31 µM [inhibitor, partial curve, poor fit]",–,–
